According to the supplement of paper PMC10126150:
Sequences with one replicate were seen in a single cluster, so their values are uncertain.

Tested on: ATP
Experiment: switch fluorescence ratio, 500 uM ATP over buffer (Cy3 cluster intensity, sum of 5 cycles each) (fold (ratio)); higher = stronger signal-on switching upon ATP binding; sequences stand for … in TCGTCGGCAGCGTCAGATGTGTATAAGAGACAGTTTTTTTTTTTTTTTTTTTTTTTTT…TC
Conditions: aptamer strand: ATP DNA aptamer (quencher-CACCTGGGGGAGTATTGCGGAGGAAGG + anchor), 100 nM annealed; ATP concentration: 500 uM; one replicate
Outline: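 The quencher-labelled ATP aptamer, at 100 nM, was annealed to Cy3-labelled switching-strand clusters on a modified Illumina MiSeq flow-cell. The clusters were imaged in selection buffer, then after 15 min with 500 uM ATP at 22 °C, and this buffer/ATP cycle ran five times with NaOH stripping and re-annealing between runs. Per-cluster fluorescence ratios, summed target-cycle over summed buffer-cycle Cy3 intensity, were averaged per switch-domain sequence. Clusters outside 100-1000 RFU were excluded.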
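Further: ATP exposure 15 min at 22 °C before imaging.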

Row | Sequence | switch fluorescence ratio
1 | CAACTCCGG | 1.16
2 | GACGGGGTAT | 1.18
3 | AAGTATAAAG | 0.953
4 | TTTATGACAA | 1
5 | AGGCGCGCTC | 1
6 | TCGTGAGCAC | 1.3
7 | GACAATTTAG | 0.994
8 | GTGCAGTGGC | 1.02
9 | CGTGAATT | 0.942
10 | TTGACAAGAA | 1
11 | TAGAGGGACA | 1.01
12 | CACGTCTGGT | 0.991
13 | GATTGTGGGT | 1.03
14 | TTGATTTTC | 0.95
15 | GGAGGGAAAG | 0.993
16 | ATTAAATGTG | 0.972
17 | GCAGTCGGTA | 1.05
18 | GTCAGAAGCT | 0.988
19 | TCAGGCGGTG | 1.01
20 | GGCACCTGTT | 0.982
21 | CACACGTGGA | 1.03
22 | CGACGTGCGT | 1.05
23 | AGCCGGTGT | 1.02
24 | ATATCACGGG | 1.1
25 | GGGCGTTCGT | 0.924
26 | TACTGTTTCA | 0.998

Row | Sequence | switch fluorescence ratio
27 | GCTGCTGCG | 0.943
28 | TCTTACCCCA | 1.03
29 | ATGTCCTCGG | 0.998
30 | TGATTAACCC | 1.02
31 | ACATAATGA | 1.01
32 | ACCCGCCATT | 1.49
33 | GGCCCACGGA | 1.02
34 | TTATCTTTAA | 1
35 | GCCAGAAGCC | 1
36 | ACCTACTGGG | 1.02
37 | TCCCGGTGAC | 1.82
38 | CATGGAGGTA | 1.02
39 | CTCTGGCTAG | 1.08
40 | TTGTTCTTGT | 1.01
41 | TCCTCTGATT | 1.54
42 | AAACCCGTTC | 1.04
43 | CATGTCACCT | 1.14
44 | GTAAGGGTAC | 1.02
45 | TGCGTGAGTC | 1.02
46 | CCTGGATTAA | 1.05
47 | ACGACTGAGG | 1.03
48 | CAGAGTGTGC | 1.05
49 | ACATGGTGTT | 1.05
50 | TCACGGTCAA | 1.14
51 | TGAAGCTTGC | 1.13
52 | TGCTTAATAC | 2.12

Row | Sequence | switch fluorescence ratio
53 | AATCTTGT | 0.947
54 | ATACCCTAT | 1.01
55 | CGGGCTCGTC | 0.999
56 | GATCTAGTCT | 1.04
57 | AAGATTGTGA | 0.965
58 | GATACAAGAA | 1
59 | CCCACTAAG | 1.04
60 | CTGACGATTA | 1.43
61 | CGCATTATAT | 1.75
62 | AAGTCTGTA | 0.956
63 | CATTATAAGC | 1.13
64 | TATGACCATT | 0.957
65 | CAAGTGCGA | 1.07
66 | GAGGGTAGGC | 1.01
67 | CATGCCAGGA | 1.05
68 | TTAAATGGAT | 1.03
69 | GGAGTAGAAG | 1
70 | TTTAGGCGAA | 1.04
71 | CTAGAAGGTG | 1.71
72 | AGCCTGTGAC | 1
73 | ACGTTTGCGA | 1.02
74 | ATCAGATCTA | 0.993
75 | GCTTCACGC | 1.08
76 | AACTTCGAGG | 1.03
77 | CTAGCTCTAA | 0.979
